{
  "source": "the supplement of paper PMC6531468",
  "note": "The other results are listed elsewhere or left out. Values come from read counts of a selection and are noisy. Each score is taken over the longer molecules that contain the sequence shown.",
  "data": [
    {"target": "IMP3 full-length (UniProt O00425)", "sequence (O00425 whole entry)": "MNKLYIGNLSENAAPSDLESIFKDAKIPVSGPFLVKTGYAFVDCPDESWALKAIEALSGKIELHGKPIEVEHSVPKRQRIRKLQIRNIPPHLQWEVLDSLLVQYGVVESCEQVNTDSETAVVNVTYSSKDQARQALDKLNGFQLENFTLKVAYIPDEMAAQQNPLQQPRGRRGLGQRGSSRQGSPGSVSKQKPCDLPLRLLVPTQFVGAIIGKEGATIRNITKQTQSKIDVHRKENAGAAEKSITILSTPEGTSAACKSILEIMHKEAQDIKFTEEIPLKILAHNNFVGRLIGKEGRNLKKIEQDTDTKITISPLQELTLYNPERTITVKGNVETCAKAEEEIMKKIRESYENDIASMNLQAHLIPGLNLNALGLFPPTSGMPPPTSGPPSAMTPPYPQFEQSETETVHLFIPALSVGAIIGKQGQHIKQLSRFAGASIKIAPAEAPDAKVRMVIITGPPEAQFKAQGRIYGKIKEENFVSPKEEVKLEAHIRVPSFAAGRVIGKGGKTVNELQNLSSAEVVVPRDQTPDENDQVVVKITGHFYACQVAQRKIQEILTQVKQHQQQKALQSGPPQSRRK", "test": "6-mer SELEX enrichment z-score vs GST control; IMP3 is the RNA-binding protein IGF2BP3; higher = more enriched by binding", "details": "construct: FL IMP3 (1-579); SELEX round: R4", "method": "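SELEX-seq with GST-tagged full-length IMP3 and an N40 RNA pool, round 4. Each 6-mer is scored as an enrichment z-score of sequence tags containing it, normalised to the matching GST SELEX round. RNA written as DNA (T = U).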", "values": [
      {"sequence": "GACTTG", "6-mer SELEX enrichment z-score": -0.586},
      {"sequence": "GGCCGA", "6-mer SELEX enrichment z-score": 0.515},
      {"sequence": "ACTTCA", "6-mer SELEX enrichment z-score": 0.762},
      {"sequence": "TTTTTT", "6-mer SELEX enrichment z-score": 0.472},
      {"sequence": "CAACCT", "6-mer SELEX enrichment z-score": -0.929},
      {"sequence": "GGGATA", "6-mer SELEX enrichment z-score": 0.09},
      {"sequence": "GGCCTT", "6-mer SELEX enrichment z-score": 0.223},
      {"sequence": "ATCTCG", "6-mer SELEX enrichment z-score": -0.013},
      {"sequence": "CCGAAC", "6-mer SELEX enrichment z-score": -1.65},
      {"sequence": "ATGTAC", "6-mer SELEX enrichment z-score": 0.041},
      {"sequence": "ACCTAC", "6-mer SELEX enrichment z-score": -1.38},
      {"sequence": "ATATGA", "6-mer SELEX enrichment z-score": 0.099},
      {"sequence": "CTTACA", "6-mer SELEX enrichment z-score": 0.571},
      {"sequence": "ATGAAA", "6-mer SELEX enrichment z-score": -0.854},
      {"sequence": "GGATCT", "6-mer SELEX enrichment z-score": 0.054},
      {"sequence": "CGAAAT", "6-mer SELEX enrichment z-score": -1.04},
      {"sequence": "GTATTT", "6-mer SELEX enrichment z-score": -0.059},
      {"sequence": "TCACCA", "6-mer SELEX enrichment z-score": 0.968},
      {"sequence": "GGCAGA", "6-mer SELEX enrichment z-score": 1.29},
      {"sequence": "ATTCGG", "6-mer SELEX enrichment z-score": 0.652},
      {"sequence": "CGCCCA", "6-mer SELEX enrichment z-score": -0.682},
      {"sequence": "CTACTC", "6-mer SELEX enrichment z-score": -0.457},
      {"sequence": "TTGACG", "6-mer SELEX enrichment z-score": -0.651},
      {"sequence": "CAAACC", "6-mer SELEX enrichment z-score": -1.54},
      {"sequence": "TGCTTC", "6-mer SELEX enrichment z-score": 0.11},
      {"sequence": "TAAAGC", "6-mer SELEX enrichment z-score": -0.99},
      {"sequence": "TAACGC", "6-mer SELEX enrichment z-score": -0.483},
      {"sequence": "TATCGC", "6-mer SELEX enrichment z-score": 0.285},
      {"sequence": "GACTTA", "6-mer SELEX enrichment z-score": -0.567},
      {"sequence": "AAGGTT", "6-mer SELEX enrichment z-score": -0.216},
      {"sequence": "ACTAAA", "6-mer SELEX enrichment z-score": -1.05},
      {"sequence": "TAAGCA", "6-mer SELEX enrichment z-score": 0.118},
      {"sequence": "CAGATG", "6-mer SELEX enrichment z-score": 0.365},
      {"sequence": "GGCTAT", "6-mer SELEX enrichment z-score": 0.436},
      {"sequence": "ATTAAA", "6-mer SELEX enrichment z-score": -0.247},
      {"sequence": "TCTTTC", "6-mer SELEX enrichment z-score": 0.402},
      {"sequence": "CGCTAC", "6-mer SELEX enrichment z-score": 0.063},
      {"sequence": "ACCGTT", "6-mer SELEX enrichment z-score": -0.163},
      {"sequence": "TCGTAG", "6-mer SELEX enrichment z-score": -0.332},
      {"sequence": "TGCGTG", "6-mer SELEX enrichment z-score": -0.958}
    ]}
  ]
}
